Common to all, as to assay: ELISA, antigen coated, binder 1 µg/mL, chemiluminescence
Conditions in all cases: remark: other sources report otherwise
(In general: An ELISA detects its analyte on a solid surface through an enzyme-linked reagent.)

Assay [1] concerns the target GCCDC1 wild-type RBD (coronavirus GCCDC1 strain (Nobecovirus subgenus)).
Assay [2] addresses Zaria wild-type RBD (coronavirus Zaria strain (Hibecovirus subgenus)).
The target in assay [3] is Hp wild-type RBD (coronavirus Hp strain (Hibecovirus subgenus)).

B1: REGN10987 (antibody)
heavy: QVQLVESGGGVVQPGRSLRLSCAASGFTFSNYAMYWVRQAPGKGLEWVAVISYDGSNKYYADSVKGRFTISRDNSKNTLYLQMNSLRTEDTAVYYCASGSDYGDYLLVYWGQGTLVTVSS[sequence of human IgG1 constant region not given]
light: QSALTQPASVSGSPGQSITISCTGTSSDVGGYNYVSWYQQHPGKAPKLMIYDVSKRPSGVSNRFSGSKSGNTASLTISGLQSEDEADYYCNSLTSISTWVFGGGTKLTVLRTVAAPSVFIFPPSDEQLKSGTASVVCLLNNFYPREAKVQWKVDNALQSGNSQESVTEQDSKDSTYSLSSTLTLSKADYEKHKVYACEVTHQGLSSPVTKSFNRGEC
For B1, the signal intensity was 70 in assay [1] and 110 in assay [2].

B2: REGN10933 (antibody)
heavy: QVQLVESGGGLVKPGGSLRLSCAASGFTFSDYYMSWIRQAPGKGLEWVSYITYSGSTIYYADSVKGRFTISRDNAKSSLYLQMNSLRAEDTAVYYCARDRGTTMVPFDYWGQGTLVTVSS[sequence of human IgG1 constant region not given]
light: DIQMTQSPSSLSASVGDRVTITCQASQDITNYLNWYQQKPGKAPKLLIYAASNLETGVPSRFSGSGSGTDFTFTISGLQPEDIATYYCQQYDNLPLTFGGGTKVEIKRTVAAPSVFIFPPSDEQLKSGTASVVCLLNNFYPREAKVQWKVDNALQSGNSQESVTEQDSKDSTYSLSSTLTLSKADYEKHKVYACEVTHQGLSSPVTKSFNRGEC
Consider B2, for which the signal intensity in assay [3] came out at 60; in assay [2], 70.
